Paper PMC6212790
This is one part of the list. At the low end of the ranking, values are background and their order means little.

Each sequence was assayed against T1, GST-Rok-C97-191 (UniProt O34857) (assay: protein binding microarray). Conditions: Rok is a gene silencer of Bacillus subtilis; high values mean tight binding; most listed sequences are background and not binding sites; double strand, one strand shown.
T1 sequence: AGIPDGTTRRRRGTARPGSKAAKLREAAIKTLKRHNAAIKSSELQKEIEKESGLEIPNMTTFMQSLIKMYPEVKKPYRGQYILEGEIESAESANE
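Note: rank score from −0.5 (least bound) to 0.5 (best bound).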

Sequence	binding signal [E-score]
GCTTTAAC	-0.221
ATTAGCGA	0.0906
AAAGTTTA	-0.00556
AATTTTAG	0.259
GATGAGGC	-0.122
ACATGAGG	-0.276
GGTGTACA	0.021
CCGTTTAA	-0.0736
CCGCCCGG	-0.348
GGAGCACC	-0.178
AAGATACA	0.151
CCAAGCAA	-0.115
AGCAGTGA	-0.105
CATTTTGA	0.182
CAGTCTTA	0.0456
CTCAAGCC	-0.239
AGAAGAAA	0.00841
AGTTTCGG	0.102
ACCATAAG	0.168
CTGTGCAA	-0.0661
ACTGTCGG	0.0846
AGATGCTC	-0.0199
CCGTTGAG	-0.108
AGCTGGGC	-0.305
CTAGGCCA	-0.172

Sequence	binding signal [E-score]
CGTGAGAC	-0.0975
AATAAATG	0.0669
GGAGGTCA	-0.249
TCAGTTCA	-0.0387
CAATCCTC	-0.119
AAGCAACA	-0.0329
AGACAGGA	-0.221
ATCAATGG	0.0807
ACAAAGGA	-0.0833
ACACATAG	0.0608
ATTCTCAA	0.108
CCTCAAAC	-0.0736
GGTTCTCA	0.034
CGGCCACC	-0.251
CTGACTTA	0.0769
AGGTGGGG	-0.391
ACACCGGG	-0.255
GCTTGCCC	-0.33
TGTCAAAA	-0.0694
CAAGAGTC	-0.0784
CCCCCGAG	-0.168
ATTGAGCG	-0.0196
CGCCGATA	0.114
CTATAAAA	0.229
CGCTTTAG	-0.0482

Sequence	binding signal [E-score]
CACTTATC	0.189
ATCTAGTG	0.364
ACTACCAT	0.353
ACATGGAA	0.124
GGCTGATA	0.0294
CAGAATCC	-0.18
AATGTTGG	0.0745
CCTCTTCG	-0.26
ACCCTTCA	-0.0326
GAATTCGC	-0.0316
ACAGATCT	-0.1
ACAGCATA	0.0594
ACTGTTAG	0.153
CCTGTAAC	0.0647
CATACCCC	-0.105
TCTTCTCA	-0.00941
TTCGCGAA	-0.11
ACTGCTTA	0.184
AAGAAGTG	0.201
GATACGTA	0.27
CCCATAGA	-0.00793
ACGTGCAA	0.0838
CCATTAGA	-0.0474
AACCGTAC	0.0358
AGGTGAAC	-0.0702

Sequence	binding signal [E-score]
GCCTAGTA	0.00863
ATATTCAA	0.081
AGGTCGCA	-0.255
AGCTGCAA	0.00509
GACGTCAC	-0.118
AGCGGTTA	-0.0632
GAAAGCCC	-0.319
ACTTTGCG	0.105
CGGTGAAG	-0.0824
ATGTACTC	0.178
AGAGCTCG	-0.0322
GATTGCCC	-0.152
CACTTCAG	-0.0197
CCTGGCCC	-0.0879
CCTGTCTC	-0.194
GAGCAGGA	-0.378
GATAAGCC	0.00512
CCTAACCA	-0.22
AAAATTCC	-0.024
ACGGTACG	0.00316
CGCCTGAA	-0.161
ACGTTCGG	0.0487
ACCGCTAT	0.065
AATGATAG	0.282
ACTCAGAT	0.211

Sequence	binding signal [E-score]
CAAAAAGG	-0.139
AAAGGAAC	-0.206
CAATAGGG	-0.0812
GCGAAGAA	0.0839
TAGTAGGA	0.252
ATAAGCCG	0.0878
AACCGTAT	0.132
AAATGTGA	0.158
CGCACCGC	-0.244
AGTTATCG	0.253
GTGTTAAC	-0.009
CGAGCCCC	-0.255
AGCGTATA	0.0511
AATGGTAC	0.274
GGAAACTA	0.354
ACCGGCTG	-0.237
GCTCCGTA	0.128
GGCGTACA	-0.151
AGAACCCA	-0.0526
CCCAAGCA	-0.209
GCTTTGAC	-0.0499
AGGCTTTG	-0.132
CACCGAGA	-0.0831
AAGAACCG	-0.123
TATTGGAA	0.0889

Sequence	binding signal [E-score]
CATGCTAG	0.148
ACCGTCGT	0.0875
CTCCCGAC	0.0178
TAACCAGA	-0.125
AGGTCGTA	0.0515
CCTGGGTC	-0.243
ACACGGCT	-0.175
CTGCGACC	0.0299
CGCCGGTA	-0.118
AACCACCA	-0.0667
AACCATAT	0.183
ATCCTCTC	0.0456
GCCAATGA	-0.306
ATTAGAGG	-0.0651
CACAGCTA	0.136
ATGCGGTG	-0.19
ACTGTTCA	0.0207
CCGAAACC	-0.265
ATGACTTC	0.0327
AAAGAGGG	-0.21
AGTTTCGA	0.228
CCAGATCA	-0.115
ATCATCCC	-0.278
CCGTACTA	0.201
CAGGCATG	-0.137

Sequence	binding signal [E-score]
ACCGCACA	0.00371
AAACTGAG	-0.241
GGGGGTTA	-0.26
ATCAGTTA	0.212
TAACCTTA	0.0808
AAGTATGA	0.179
ACGATGCA	-0.109
CCCATGAC	-0.0352
TGACGGAA	-0.0445
CGGTAACG	-0.245
AACGTGCG	-0.106
CATTAGAA	0.182
CGAAACAA	0.0284
GACCACAA	-0.0328
CTCATGGC	-0.229
TCTCCTAA	0.147
AATCGGTC	0.0872
AGACCTGC	-0.148
GGTGACAC	0.0376
ATCGGGCA	-0.0679
AGCGCTGA	-0.199
GGTGGGTA	-0.00366
ACAATAAC	0.127
GAATTCCC	0.0213
GTTTAATA	0.252

Sequence	binding signal [E-score]
AGCGTGGA	0.126
ACTTGGCC	-0.207
AGTAGTTC	0.398
ACGTAGAG	-0.0363
ACCACCCA	-0.0433
AAGCATAC	0.0136
TCCGTGAA	-0.0258
AAAGTATC	0.0933
AACAAGTG	0.142
CCTGATGC	-0.127
ACTCATGG	-0.0782
ACGCGGGG	-0.165
GCCCAAAA	0.0402
CAGGCAAG	-0.182
ATTCCGGA	0.185
ATATGGTA	0.331
CATAGGGC	-0.0843
TCACCACA	0.022
CAAGCGAG	-0.217
AGTCATAA	-0.007
AGGCCTTA	-0.156
GTAGCAAC	0.311
CACAACGC	-0.00345
AGTGTGGG	-0.0237
CAGAGTCA	-0.0794

Sequence	binding signal [E-score]
CAATAGCC	-0.0317
CTGAGAAG	-0.176
ACAGGTAA	0.103
CGCCGAGA	-0.149
AGGATCAA	-0.0242
AATAAACG	0.0612
AAGATCAG	0.194
CGACTTCC	0.0335
GAATTCAC	0.074
GCCCGCAC	-0.165
AACACTTA	0.0691
AAACCCAC	0.0386
AGTAGGCA	0.204
CACACATG	-0.0804
AGAAGAGA	-0.0461
CAATGATA	0.204
GGAATAGA	0.0515
ACGGAGCC	0.0113
CAGGCACC	-0.145
GTGTTCGA	0.0124
CAACACAA	0.034
GCGTTTCC	-0.187
AGAAAATC	0.196
CGAAGATC	0.00538
TACGCTGA	0.0818

Sequence	binding signal [E-score]
AACCCTCC	-0.255
TAGGTTCA	0.144
ACAACTGC	0.156
ACCATGCT	-0.087
CAATTTCG	0.0833
GTAGGTCA	-0.0909
GGTCTGTA	-0.0904
ATGCAAGA	0.06
GCTACGCC	-0.152
CCGTAGAC	-0.229
AACCTCGA	-0.0488
AGCATTCA	0.053
CTGGTAAG	0.108
CCGAGCGC	-0.412
AACGCCCT	-0.11
TGCTCACA	-0.0913
CGAGGTAA	0.064
AATCCTGT	0.0565
CCGTTTAC	-0.00858
CGCGTTAA	-0.19
CTAGGGTA	0.0219
GGCAGTGA	-0.363
CTGGAATA	0.0986
CGGATTAG	0.00878
ACGTACGG	0.0152

Sequence	binding signal [E-score]
ATCACCCC	-0.221
CCCTCTCG	-0.213
GGCTAACA	0.0703
CCACAGAG	-0.209
GATTCAGC	-0.0938
ATGTGTAA	0.216
ACTGCCTC	-0.278
ACTTTGAG	-0.0751
AACTAACT	0.352
TAAAAGAA	0.0213
GGTGACTA	-0.0802
CCAAGCCC	-0.263
GAGTGACA	-0.0777
GAACCAAC	-0.103
CGAATCAA	-0.196
CGAGGCTA	-0.174
AAGTACCA	0.264
AATCAGTA	0.281
AACATGGG	0.0274
CGAAGAGA	0.082
AGTCCCAT	-0.0957
AGGCCTAC	0.0721
GAACTCTA	-0.0126
GGGAGCAA	-0.0719
GCCTCCTA	-0.232

Sequence	binding signal [E-score]
ACAGAAAA	-0.0493
CCCAATAG	-0.0877
CCAGCGAA	-0.117
CATAAGGC	-0.107
ATGTGACA	0.135
ACGCCCAC	-0.165
CCAGTCAG	-0.257
GGATAAGA	-0.0139
AGTGCAGG	-0.0563
AAGTCGTA	0.0446
CACCTGCA	-0.0168
ATGCATTA	0.0789
GGCGAAAA	0.15
AAGGGTAT	-0.14
TCATGACA	-0.00654
AGCACTCA	0.041
AATATTGA	0.22
CCCGATGC	-0.208
GATCATAA	0.0823
GATAGTAA	0.367
AACGTCCT	-0.274
GCAACCCC	-0.387
AGGACCAT	-0.0969
CTATAACA	0.22
ACGCAGCT	-0.0346

Sequence	binding signal [E-score]
GGCAGAAC	-0.0311
CAAGCCGC	-0.148
CGGGTAGC	-0.292
CTGCCTCA	-0.184
CGCGATAC	0.147
AAATATCG	0.314
ACTACAGA	0.204
ATGCACCC	-0.123
CCATGTAG	0.213
ATCAGGCA	-0.0512
CTGTGACC	0.0922
GAATCGAA	5.25e-05
CACAGCAA	0.108
ACAGATCC	-0.12
CGTGGGTC	-0.284
AGACTTTG	-0.0954
AAGGTTCC	-0.282
AGCGAGCT	-0.0556
CTTAGCAA	0.0557
ATACAGAG	0.0129
TATCGAAA	0.16
GAATCATA	0.126
CCCAGACG	-0.219
ATGTAGTC	0.156
GATAGGGA	-0.0661

Sequence	binding signal [E-score]
AGTGACGG	0.0589
GCGGGGCA	-0.222
GCACCTCA	-0.0836
TACTGCCA	-0.0971
CCAAGGCA	-0.209
CATCTACC	0.222
AACCTCTC	0.0396
CTTCAACC	-0.257
ATAGGGAG	-0.224
ACGCTTTA	-0.0326
CTCCTCGC	-0.244
ACTGAAAC	-0.205
GCCCATAA	-0.116
CCACAGGG	-0.288
AGAGTTAC	0.089
CAATGCGG	-0.0545
ACTAATGA	0.0758
TCCGACCA	-0.0488
CCTCGGTA	-0.0315
